Experimental data as given in patent EP4732851A9, “LINKER, ANTIBODY-DRUG CONJUGATE, AND PREPARATION METHOD THEREFOR” (Fudan University, priority 2024, dated 2025).

How the values were obtained:
HPAF-II cells = assay: Pancreatic cancer HPAF-II in vivo model (TF-Topo1 inhibitor NDC); set-up: species or system Balb/c nude mice
Excerpt: Pancreatic cancer HPAF-II in vivo model: 5x10^6 HPAF-II cells were inoculated onto the backs of 6-week-old female Balb/c nude mice. On day 7, when the tumor volume reached ~150 mm^3, the animals were randomly grouped for treatment, with 10 tumors per group, receiving a single dose.
Similar pancreatic cancer HPAF-II in vivo model: on day 6, when the tumor volume reached ~200 mm^3, the animals were randomly grouped for treatment, with 10 tumors per group, receiving a single dose.

[1] = Toxicokinetic (TK) detection in cynomolgus monkeys; type: in vivo; settings: cynomolgus monkey, in vivo, iv
Experimental: (§1) Serum Sample Collection: HER2-NDC 1 mg/kg 1-G07-GGFG-Dxd and 1 mg/kg 1-G07-LP5 were administered via tail vein injection to 8-week-old female Balb/c mice. Approximately 100 µL of blood was collected from the orbit at time points 0 min, 5 min, 30 min, 4 h, 8 h, 24 h, 48 h, 72 h, 96 h, 120 h, 168 h, and 192 h post-adminsteration. The blood was left at room temperature for 30 min, then placed at 4°C for 3-4 h, and centrifuged at 1500 rpm for 15 min to collect the upper serum. ELISA detection of antibody conjugate concentration: The anti-Dxd antibody (Abmax Biotechnology, Cat#05-0191-L, whose affinity for LP5 is similar to that for Dxd) was diluted to 2.5 µg/mL with coating buffer and coated onto ELISA plates, 100 µL/well. The plates were sealed and incubated at 4°C overnight. Unbound antigen was removed, and blocking buffer (3% BSA in PBS) was added, 200 µL/well, for blocking at room temperature for 2 h. After the blocking solution was removed, the 3-fold serially diluted test serum samples and 3-fold serially diluted standard samples (starting from 333.33 ng/mL) were added, 100 µL/well, and incubated at room temperature for 2 h. Unbound antibodies were removed, and HRP-labeled secondary antibody diluted 1:8000 was added, 100 µL/well, and incubated at room temperature for 1 h. After removing unbound secondary antibody, TMB substrate solution was added, 150 µL/well, for color development at room temperature in the dark for about 5 min. ELISA stop solution was added, 50 µL/well, to terminate the color reaction. The OD value at 450 nm was measured, and the drug concentration in the serum was analyzed and calculated. The drug concentrations in the serum at different time points were input into Phoenix software, and a non-compartmental model was used to analyze the drug concentration-time related parameters.
K2477 experiment: 2 cynomolgus monkeys (one male and one female) were administered a single intravenous infusion of 10 mg/kg FD40-GGFG-Dxd (designated as the 10 mg/kg dose group). On day 22, a second intravenous infusion of 30 mg/kg FD40-GGFG-Dxd was administered (designated as the 30 mg/kg dose group). Blood was collected from the forelimb or hindlimb veins before each dose and at 5 min, 1 h, 8 h, 24 h, 48 h, 72 h, 96 h, 120 h, 168 h, 240 h, 336 h, and 504 h after each dose to prepare serum. Pharmacokinetic detection was performed using the method described in Example 14.
K2504 experiment: 2 cynomolgus monkeys (one male and one female) were administered a single intravenous infusion of 10 mg/kg FD40-LP5 (designated as the 10 mg/kg dose group). On day 22, a second intravenous infusion of 30 mg/kg FD40-LP5 was administered (designated as the 30 mg/kg dose group). […]

HCC1806 cells = assay: Triple-negative breast cancer (TNBC) HCC1806 model; type: in vivo, Balb/c nude mice; settings: 10 mg/kg, 5 mg/kg, and 2.5 mg/kg, single dose
Experimental: Triple-negative breast cancer (TNBC) HCC1806 model: HCC1806 cells in the logarithmic growth phase were inoculated into the mammary fat pads of 6-week-old female Balb/c nude mice at a density of 3×10^6 cells per 200 µL of serum-free medium. When the tumor volume reached 200 mm^3, the animals were randomly grouped, with 10 tumors per group, receiving a single dose.

[2] = tested on: In Vitro Blood-Brain Barrier (BBB) Model; assay: Permeability in an in vitro blood-brain barrier (BBB) model; type: in vitro ADME, Mouse; settings: 100 µg/mL in upper chamber; at both the 6h and 24h time points
[3] = Pharmacokinetic detection in mice (ELISA of conjugate in serum); type: in vivo, Balb/c mice; settings: mouse, in vivo, iv, 1 mg/kg
Experimental: as §1
Similarly, TF-NDC 1 mg/kg FD40-GGFG-Dxd and 1 mg/kg FD40-LP5 were administered via tail vein injection to 8-week-old female Balb/c mice. Approximately 100 µL of blood was collected from the orbit at time points 0 min, 5 min, 30 min, 4 h, 8 h, 24 h, 48 h, 72 h, 96 h, 120 h, 168 h, and 192 h post-administeration, processed for detection and analysis.

[4] = Excerpt: This batch of FD40-LP5 conjugate was used for freeze-thaw stability and thermal stability tests.

B1: FD40-LP5 (conjugate)
chain: QVQLVESGGGLVKPGGSLRLSCTASETISSTYIMGWHRQAPGKGRELVAVISGDGVTHYADFVKGRFTISRDNAKNTVYLQMNFLRAEDTAVYYCYAAGRWNHWGQGTMVTVSS[letters of human IgG1 Fc with C220S (EU numbers) not shown]
For B1, the “therapeutic effect compared with FD40-LP1” value (HPAF-II cells; 10 mg/kg single dose on day 7) was “superior to that of FD40-LP1”, the tumor growth (HPAF-II cells; 10 mg/kg single dose on day 7, compared to hIgG1-MMAE control group) was “significantly inhibited tumor growth” and the “anti-tumor therapeutic effect compared to 10 mg/kg FD40-GGFG-Dxd” value (HPAF-II cells; 10 mg/kg, 5 mg/kg, 2.5 mg/kg, single dose on day 6) was “superior anti-tumor therapeutic effects”. For the same molecule, the “mean AUC0-t” value ([1]; 10 mg/kg) was 7527.15 µg·h/mL, the “mean AUC0-t” value ([1]; 30 mg/kg) was 24615.3 µg·h/mL and the tumor therapeutic effect (HCC1806 cells) was “excellent or good tumor therapeutic effects”. For the same molecule, the “BBB penetration rate relative to TF-ADC HuSC1-39-MMAE” value [2] was “approximately 2 times”, the “mean AUC0-t” value [3] was 531.75 µg·h/mL and the “mean Cmax” value [3] was 16.75 µg/mL. The “mean MRTlast” value [3] was 49.12 h, the “mean T1/2” value [3] was 52.29 h and the freeze-thaw stability [4] was “excellent freeze-thaw stability”. For the same molecule, the thermal stability [4] was “excellent thermal stability”, the Appearance ([4]; 0 week) was “Clear liquid” and the “BCA Conc.” value ([4]; 0 week) was 11.14 mg/mL. The Monomer ([4]; 0 week) was 96.81%, the “Reduced MS-DAR” value ([4]; 0 week) was 4.02 and the Appearance ([4]; 0x freeze thaw) was “Clear liquid”. For the same molecule, the “BCA Conc.” value ([4]; 0x freeze thaw) was 11.14 mg/mL, the Monomer ([4]; 0x freeze thaw) was 97.39% and the “Reduced MS-DAR” value ([4]; 0x freeze thaw) was 4. The Appearance ([4]; 1x freeze thaw) was “Clear liquid”, the “BCA Conc.” value ([4]; 1x freeze thaw) was 11.54 mg/mL and the Monomer ([4]; 1x freeze thaw) was 96.8%. For the same molecule, the “Reduced MS-DAR” value ([4]; 1x freeze thaw) was 4.03, the Appearance ([4]; 3x freeze thaw) was “Clear liquid” and the “BCA Conc.” value ([4]; 3x freeze thaw) was 11.5 mg/mL. For the same molecule, the Monomer ([4]; 3x freeze thaw) was 96.7%, the “Reduced MS-DAR” value ([4]; 3x freeze thaw) was 4.03 and the Appearance ([4]; 5x freeze thaw) was “Clear liquid”. For the same molecule, the “BCA Conc.” value ([4]; 5x freeze thaw) was 11.49 mg/mL, the Monomer ([4]; 5x freeze thaw) was 96.94% and the “Reduced MS-DAR” value ([4]; 5x freeze thaw) was 4.03. The Appearance ([4]; 25 °C 1 week) was “Clear liquid”, the “BCA Conc.” value ([4]; 25 °C 1 week) was 10.61 mg/mL and the Monomer ([4]; 25 °C 1 week) was 96.79%. For the same molecule, the “Reduced MS-DAR” value ([4]; 25 °C 1 week) was 4, the Appearance ([4]; 25 °C 2 weeks) was “Clear liquid” and the “BCA Conc.” value ([4]; 25 °C 2 weeks) was 11.42 mg/mL. The Monomer ([4]; 25 °C 2 weeks) was 96.67% and the “Reduced MS-DAR” value ([4]; 25 °C 2 weeks) was 3.99.

Like-named read-outs stand apart in the source and are kept apart here.
